# Measured values published in PubChem BioAssay AID652104 (National Center for Advancing Translational Sciences (NCATS), 2013).
# The whole screen tested about 410,000 compounds, of which about 7,200 (1.8%) were called active. The inconclusive results got no clear call from the source; some entries with a clear call stand among them for comparison. Calls follow the shape of the dose curve; as a rule, active = well fitted activation curve with a large enough effect; inconclusive = small, poorly fitted or top-dose-only effect, or another doubt; inactive = no such curve, though single readings can be large or run the other way. No potency is given beside an inconclusive call; the fits are too rough.
# Experiment: qHTS of TDP-43 Inhibitors; also: nearly all actives have a fitted effect of over 50% in size; as to growth rescue (activation): % of control where 0% means no effect
# Conditions: TDP-43 expressing yeast growth rescue, BacTiter-Glo, 24 h; growth rescue (activation): at 46.1 µM (top of the series) unless noted
# Procedure, shortened: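 Cell-based yeast growth screen: TDP-43 expression induced in galactose, inoculum OD600=0.02 after raffinose pregrowth to mid-log. Read-out BacTiter-Glo luminescence at 24 hr, 30 deg C; inhibition of toxicity seen as signal increase.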
# Potency is read from the fitted curve at half-maximal effect; tags tell the direction and shape of the fitted curve.
SMILES,Potency,growth rescue (activation)
O=C(C1CCCC1)N1CCN=C1SCc1cccc([N+](=O)[O-])c1,"inconclusive [activator, single point]",–
CCn1c(/C=C/c2ccc([N+](=O)[O-])o2)nc2ccccc2c1=O,–,inconclusive: -92.8% [activator]
CC(=O)c1cccc(NC(=O)N2CCC(c3ccc(C)cc3)C2)c1 (stereo not given),"inconclusive [activator, partial curve]",–
COc1ccccc1S(=O)(=O)N1CCn2cccc2C1C (stereo not given),inactive,–
O=C(NC1CC1)c1cc2cc3ccccc3nc2s1,"inconclusive [activator, full curve]",–
COc1ccc(C(=O)N(CCc2ccccc2)Cc2ccccc2)c(OC)n1,"inconclusive [activator, single point]",–
CCOc1cccc(C(=O)Nc2ccc3oc(-c4ccc(C(C)(C)C)cc4)nc3c2)c1,inactive,–
COc1ccc(NC(=O)Cn2c(=O)n(-c3cccc(C)c3)c(=O)c3c2c2cc(C)ccc2n3C)cc1OC,inactive,–
CC(=O)c1sc(Nc2ccc3c(c2)OCO3)nc1C,active: 12.6 µM,–
CC(CCO)Nc1nc2c(c(=O)n(C)c(=O)n2C)n1Cc1ccc(Br)cc1 (stereo not given),inactive,–
CCN(CCCNC(=O)c1ccc(Sc2ccc(C)cc2)c(NC(C)=O)c1)c1cccc(C)c1,inactive,–
c1ccc(-c2nc(-n3ccnc3)nc(-n3ccnc3)n2)cc1,"inconclusive [activator, single point]",–
CCc1ccccc1NC(=O)C1CC(c2ccc(OC)cc2)=NO1 (stereo not given),"inconclusive [activator, single point]",–
CCOC(=O)CCc1c(C(=O)OCC)[nH]c(CC)c1C(=O)OCc1ccccc1,"inconclusive [activator, partial curve]",–
COc1ccccc1NC(=S)NCCSc1ccc(C)cc1,"inconclusive [activator, single point]",–
COc1ccc(Cl)cc1NC(=O)COC(=O)c1ccc(Cl)nc1,"inconclusive [activator, partial curve]",–
Cc1cc(C)c2c(N)c(C(=O)Nc3ccccc3Br)sc2n1,inactive,–
CCOC(=O)N1CCN(C(=O)c2cn(C)c3ccc(S(=O)(=O)N(CC)CC)cc3c2=O)CC1,"inconclusive [activator, partial curve]",–
COc1ccc(OC)c(NC(=O)c2c(NC(=O)CCC(=O)O)sc3c2CCCCC3)c1,"inconclusive [activator, full curve, poor fit]",–
COC(=O)c1cc2oc(C)cc2n1Cc1cccc(Cl)c1,inactive,–
